Experiment in all cases: nuclear relocation assay; 293T cells co-transfected with UAF1-mRFP and a GFP- or YFP-tagged nuclear DUB variant; nuclear accumulation of UAF1-mRFP seen by confocal microscopy in fixed cells (live cells too for USP1 WT, S313A, S313D; also after USP1 siRNA)
Experiment [1] deals with T1, YFP-USP1(235–408) (human) (UniProt O94782).
T1 sequence: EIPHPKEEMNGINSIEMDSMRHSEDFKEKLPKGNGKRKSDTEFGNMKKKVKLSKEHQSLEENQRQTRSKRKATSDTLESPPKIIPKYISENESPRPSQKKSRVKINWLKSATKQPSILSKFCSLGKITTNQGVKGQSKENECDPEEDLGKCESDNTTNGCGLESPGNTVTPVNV

By UniProt entry, the sequences of proteins in these tests, tags left out. Where a name states a change or a piece, a line headed by the entry shows the natural chain unless it says otherwise. Chains listed by the source or under a name are the forms on record and can include a tag or linker.
USP46 central fragment (165–259) in pNLS(SV40)-GFP (P62068, form named): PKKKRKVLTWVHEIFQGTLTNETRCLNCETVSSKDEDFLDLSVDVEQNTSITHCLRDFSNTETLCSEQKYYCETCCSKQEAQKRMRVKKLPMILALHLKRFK
UniProt Q8TAF3: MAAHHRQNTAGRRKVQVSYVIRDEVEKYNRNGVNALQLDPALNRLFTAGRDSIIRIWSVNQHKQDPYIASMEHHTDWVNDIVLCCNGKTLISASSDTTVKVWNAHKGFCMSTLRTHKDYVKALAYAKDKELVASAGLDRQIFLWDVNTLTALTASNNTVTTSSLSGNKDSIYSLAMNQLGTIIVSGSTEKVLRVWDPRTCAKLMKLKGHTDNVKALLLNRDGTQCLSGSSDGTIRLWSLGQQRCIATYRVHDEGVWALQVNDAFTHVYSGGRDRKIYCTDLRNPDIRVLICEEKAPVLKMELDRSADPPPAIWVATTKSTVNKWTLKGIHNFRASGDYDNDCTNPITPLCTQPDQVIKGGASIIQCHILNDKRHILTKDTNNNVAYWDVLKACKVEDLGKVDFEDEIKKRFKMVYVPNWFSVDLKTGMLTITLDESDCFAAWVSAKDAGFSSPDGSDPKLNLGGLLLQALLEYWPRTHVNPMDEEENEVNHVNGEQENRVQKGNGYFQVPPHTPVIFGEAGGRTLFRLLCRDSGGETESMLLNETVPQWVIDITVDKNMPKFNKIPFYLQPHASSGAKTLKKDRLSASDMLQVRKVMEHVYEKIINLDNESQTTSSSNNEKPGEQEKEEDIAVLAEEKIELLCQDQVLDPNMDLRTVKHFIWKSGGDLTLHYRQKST

The target of experiment [2] is T2, GFP-USP1^S313D (human) (UniProt O94782).
T2 sequence: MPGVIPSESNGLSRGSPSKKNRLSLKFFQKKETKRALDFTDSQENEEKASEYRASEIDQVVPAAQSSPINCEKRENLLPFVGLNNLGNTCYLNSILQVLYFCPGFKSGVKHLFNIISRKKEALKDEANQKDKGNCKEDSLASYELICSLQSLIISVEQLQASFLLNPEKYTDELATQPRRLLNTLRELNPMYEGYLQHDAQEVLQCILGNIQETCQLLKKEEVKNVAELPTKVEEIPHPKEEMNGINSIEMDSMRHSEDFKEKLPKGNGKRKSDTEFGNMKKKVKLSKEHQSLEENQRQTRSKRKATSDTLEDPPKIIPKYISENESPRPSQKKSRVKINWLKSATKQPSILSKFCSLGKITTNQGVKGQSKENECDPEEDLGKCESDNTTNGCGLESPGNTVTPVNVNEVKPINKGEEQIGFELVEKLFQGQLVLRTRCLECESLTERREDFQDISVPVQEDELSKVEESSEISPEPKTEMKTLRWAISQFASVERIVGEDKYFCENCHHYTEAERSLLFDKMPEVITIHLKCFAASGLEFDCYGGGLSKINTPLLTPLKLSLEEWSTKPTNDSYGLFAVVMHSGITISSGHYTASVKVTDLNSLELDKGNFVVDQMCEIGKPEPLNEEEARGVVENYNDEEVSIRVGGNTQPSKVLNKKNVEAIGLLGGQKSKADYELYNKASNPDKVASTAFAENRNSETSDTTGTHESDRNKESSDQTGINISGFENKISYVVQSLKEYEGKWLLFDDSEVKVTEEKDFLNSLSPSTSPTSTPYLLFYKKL

Experiment [3] addresses USP46 central fragment (165–259) in pNLS(SV40)-GFP (Simian virus 40 | not stated) (UniProt P62068).
Experiment [4] concerns the target T3, GFP-USP1^L669P (human) (UniProt O94782).
T3 sequence: T2 sequence with D313S, L669P

The text below walks through data of article PMC4326527.

Numbering of substitutions follows the chain as printed. These are yes or no findings as the source states them, for the method shown. Some binding calls cover weakened binding; strength is not graded here. For some of these results: Sequences can lack the tags named with a protein.

Consider UAF1-mRFP (from UniProt Q8TAF3 1-677), for which the binding result in experiment [1] is on record as “no binding”; in experiment [2] it was “binds”; in experiment [3], “binds”; in experiment [4], “binds”.
